In PubChem BioAssay (NCI) one finds TGI and GI50 data, which are given here for 5 compounds.

Common to all, as to assay: NCI anticancer screen, dose series, 48 h
Assay [1] relates to COLO 205 colon.
Assay [2] has as its system HOP-92 NSCLC.
For assay [3], the system named is UACC-257 melanoma.
For assay [4], the system named is 786-0 renal.
In assay [5] the test system is PC-3 prostate.
Assay [6] deals with BT-549 breast.
For assay [7], the system named is UO-31 renal.
Assay [8] relates to KM12 colon.
Assay [9] has as its system TK-10 renal.
Assay [10] relates to HCC-2998 colon.
Assay [11] deals with HOP-62 NSCLC.
In assay [12] the test system is OVCAR-5 ovarian.
Assay [13] relates to SNB-75 CNS.
Assay [14] relates to SF-295 CNS.
For assay [15], the system named is U251 CNS.
For assay [16], the system named is NCI/ADR-RES ovarian.
For assay [17], the system named is HCT-116 colon.
For assay [18], the system named is RPMI-8226 leukemia.
The test system of assay [19] is HCT-15 colon.
For assay [20], the system named is RXF-631 renal.
Assay [21] relates to SK-OV-3 ovarian.

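A five-concentration, 48-hour dose response in 96-well plates underlies each endpoint, interpolated linearly between surrounding concentrations. At the GI50, growth is halved.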 Certain results were filed several times, with different values. Only these are listed. The source may hold further records. For part of these data: A record mostly stands for its own series of concentrations, not given here; a value can be the end of its range. Brackets tell where a record comes from. Letters hold for one entry only. For part of these data: Values given together are repeats across runs, samples, wells, individuals or studies.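 At the TGI there is no net growth.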 Some results are limits rather than exact numbers.

With `CON(C)C(=O)N1N=C(c2cc(F)ccc2F)SC1(CCCN)c1ccccc1` (stereo not given), in [1], the TGI was 17.8 µM [sample A, 1 test] and 927 nM [sample B, mean of 2 tests]. In addition, the GI50 in [2] was 98.6 nM [sample A, 1 test] and 1.18 µM [sample B, 1 test]; in assay [3], 480 nM [sample A, 1 test] and < 10 nM [sample B, 1 test].
For the compound `CCc1c(C)c(C#N)c(=S)n(C2OC(COC(C)=O)C(OC(C)=O)C(OC(C)=O)C2OC(C)=O)c1C` (stereo not given), the GI50 in assay [4] is > 100 µM [sample A, 1 test] and 7.18 µM [sample B, 1 test]; in [5] it was > 100 µM [sample A, 1 test] and 9.94 µM [sample B, 1 test]. The TGI in [2] is > 100 µM [sample A, 1 test] and 9.07 µM [sample B, 1 test].
Regarding `CC(C)(C)c1cc(NC(=O)Cc2ccc(-c3cnc4cc(-c5cnn(CCN6CCOCC6)c5)ccc4n3)cc2)no1`, the GI50 in assay [6] was 959 nM, 1.22 µM [sample A, 1 test] and 94.3 nM [sample B, mean of 2 tests]; in [8], 12.2 nM, 22.8 nM [sample A, 1 test] and 1.71 nM [sample B, mean of 2 tests]; in [9], 1.22 µM, 807 nM [sample A, 1 test] and 51.5 nM [sample B, mean of 2 tests]; in assay [10], 1.22 µM, 3.58 µM [sample A, 1 test] and 251 nM [sample B, mean of 2 tests]; in [3], 1.23 µM, 2.07 µM [sample A, 1 test] and 142 nM [sample B, mean of 2 tests]; in [11], 796 nM, 882 nM [sample A, 1 test] and 64.2 nM [sample B, mean of 2 tests]. Moreover, the GI50 in [12] is 1.61 µM, 703 nM [sample A, 1 test] and 101 nM [sample B, mean of 2 tests]; in [13], 49.9 nM, 480 nM [sample A, 1 test] and 22.1 nM [sample B, mean of 2 tests]. Moreover, the TGI in [7] is 50 µM [sample A, 1 test] and 1.3 µM [sample B, 1 test].
Turning to `NCCCn1c2c(c3ccc([N+](=O)[O-])cc3c1=O)C(=O)c1cc(Br)ccc1-2`, the TGI was 551 nM and 36.6 nM in assay [14]; 392 nM and 37.5 nM in [10]; 9.24 nM and 1.92 µM in assay [2]. Also, the GI50 in assay [2] is 1.84 nM and 66.2 nM.
For `COc1ccc(/C=C\c2cc(OC)c(OC)c(OC)c2)cc1OC(=O)NCCN(C)C`, the TGI in assay [15] was 10.2 nM and > 36.9 µM; in assay [16] it was 0.173 nM and 46.5 µM; in assay [8] it was 7.1 nM and > 100 µM; in assay [14], 0.915 nM and 66.8 µM; in assay [17] it was 46.4 nM and > 100 µM; in assay [18] it was 188 nM and 15.3 µM. Also, the TGI in assay [5] was 123 nM and > 100 µM; in assay [19], 11 nM and > 100 µM; in [20], 18.5 nM and 22.9 µM; in assay [12], 140 nM and > 100 µM; in [21] it was 858 nM and > 53.6 µM.
